In brackets after ≈: the same amount, converted by molar mass. At least one peptide structure holds a part that was inferred or is arguable (an end, a ring closure or a residue). Numbered stars: 1 amine (or outer) side, 2 acyl side, 3 side chain; on linkers, the order of the positions; unused ones are H or OH. Bridge positions count the residues as written; N and C are the ends. Square brackets hold non-standard residues; d marks the D form. Peptide text beside a SMILES is read from it. * marks the point of attachment. pTerphenylCO(4''-OnC5H11) = CCCCCOc1ccc(-c2ccc(-c3ccc(C(=O)*)cc3)cc2)cc1; X9 = O=C(O)COc1ccc(CN[C@H]2C[C@@H](C(=O)[*:2])N([*:1])C2)cc1; X10 = O=C(N[C@H]1C[C@@H](C(=O)[*:2])N([*:1])C1)C1CCNCC1; X7 = O=C(N[C@H]1C[C@@H](C(=O)[*:2])N([*:1])C1)c1ccco1; X8 = O=C(N[C@H]1C[C@@H](C(=O)[*:2])N([*:1])C1)C1CCCO1; X17 = CC(=O)N(C)[C@H]1C[C@@H](C(=O)[*:2])N([*:1])C1; X2 = CCCCCCCCOc1ccc(N2CCN(c3ccc(C(=O)*)cc3)CC2)cc1; X12 = O=C([C@@H]1C[C@H](NCc2ccncc2)CN1[*:1])[*:2]; X16 = CCC(=O)N[C@H]1C[C@@H](C(=O)[*:2])N([*:1])C1; X1 = O=C([C@@H]1C[C@H](NCc2ccccc2)CN1[*:1])[*:2]; X4 = COC(=O)N[C@H]1C[C@@H](C(=O)[*:2])N([*:1])C1; X22 = CN(C)[C@H]1C[C@@H](C(=O)[*:2])N([*:1])C1; X23 = COc1ccc(N2CCN(c3ccc(C(=O)*)cc3)CC2)cc1; X6 = CN[C@H]1C[C@@H](C(=O)[*:2])N([*:1])C1; X24 = COc1ccc(-c2ccc(N3CCN(*)CC3)cc2)cc1; Pro(4S-NH2) = N[C@@H]1CN[C@H](C(=O)O)C1; hTyr = N[C@@H](CCc1ccc(O)cc1)C(=O)O; Hyp = O=C(O)[C@@H]1C[C@@H](O)CN1; Orn = NCCC[C@H](N)C(=O)O; Dap = NC[C@H](N)C(=O)O; CO = O=C([*:1])[*:2]
How the values were obtained:
[1] = test system: Candida albicans ATCC 10231; experiment: MIC by broth microdilution, Candida albicans ATCC 10231; assay type: cell-based; details: Yeast Nitrogen Broth with glucose, 24 to 48 hr, growth inhibition read visually
[2] = test system: Candida albicans ATCC 38247; experiment: MIC by broth microdilution, Candida albicans ATCC 38247; assay type: cell-based; details: Yeast Nitrogen Broth with glucose, 24 to 48 hr, growth inhibition read visually

SMILES	MIC Candida albicans ATCC 10231 [1] [µg/mL]	MIC Candida albicans ATCC 38247 [2] [µg/mL]
CCCCCOc1ccc(-c2ccc(-c3ccc(C(=O)N[C@H]4CCCNC(=O)[C@@H]5C[C@H](N)CN5C(=O)[C@H]([C@@H](C)O)NC(=O)[C@H](CCc5ccc(O)cc5)NC(=O)[C@@H]5C[C@@H](O)CN5C(=O)[C@H]([C@@H](C)O)NC4=O)cc3)cc2)cc1 [Example 1] ({pTerphenylCO(4''-OnC5H11)}-[Orn]T[Hyp][hTyr]T[Pro(4S-NH2)]; lactam 1-C)	0.2 (≈ 0.188 µM)	0.1 (≈ 0.0942 µM)
CCCCCOc1ccc(-c2ccc(-c3ccc(C(=O)N[C@H]4CCCNC(=O)[C@@H]5C[C@H](N)CN5C(=O)[C@H](CN)NC(=O)[C@H](CCc5ccc(O)cc5)NC(=O)[C@@H]5C[C@@H](O)CN5C(=O)[C@H]([C@@H](C)O)NC4=O)cc3)cc2)cc1 [Example 6] ({pTerphenylCO(4''-OnC5H11)}-[Orn]T[Hyp][hTyr][Dap][Pro(4S-NH2)]; lactam 1-C)	0.78 (≈ 0.746 µM)	0.78 (≈ 0.746 µM)
CCCCCOc1ccc(-c2ccc(-c3ccc(C(=O)N[C@H]4CCCNC(=O)[C@@H]5C[C@H](N)CN5C(=O)[C@H](CCCNC(=N)N)NC(=O)[C@H](CCc5ccc(O)cc5)NC(=O)[C@@H]5C[C@@H](O)CN5C(=O)[C@H]([C@@H](C)O)NC4=O)cc3)cc2)cc1 [Example 7] ({pTerphenylCO(4''-OnC5H11)}-[Orn]T[Hyp][hTyr]R[Pro(4S-NH2)]; lactam 1-C)	0.39 (≈ 0.349 µM)	0.78 (≈ 0.699 µM)
CCCCCOc1ccc(-c2ccc(-c3ccc(C(=O)N[C@H]4CCCNC(=O)[C@@H]5C[C@H](N)CN5C(=O)[C@H](C)NC(=O)[C@H](CCc5ccc(O)cc5)NC(=O)[C@@H]5C[C@@H](O)CN5C(=O)[C@H]([C@@H](C)O)NC4=O)cc3)cc2)cc1 [Example 8] ({pTerphenylCO(4''-OnC5H11)}-[Orn]T[Hyp][hTyr]A[Pro(4S-NH2)]; lactam 1-C)	0.2 (≈ 0.194 µM)	0.39 (≈ 0.378 µM)
CCCCCOc1ccc(-c2ccc(-c3ccc(C(=O)N[C@H]4CCCNC(=O)[C@@H]5C[C@H](N)CN5C(=O)[C@H]([C@@H](C)O)NC(=O)[C@H](CCc5ccc(O)cc5)NC(=O)[C@@H]5CCCN5C(=O)[C@H]([C@@H](C)O)NC4=O)cc3)cc2)cc1 [Example 13] ({pTerphenylCO(4''-OnC5H11)}-[Orn]TP[hTyr]T[Pro(4S-NH2)]; lactam 1-C)	0.39 (≈ 0.373 µM)	0.39 (≈ 0.373 µM)
CCCCCCCCOc1ccc(N2CCN(c3ccc(C(=O)N[C@H]4CCCNC(=O)[C@@H]5C[C@H](N)CN5C(=O)[C@H]([C@@H](C)O)NC(=O)[C@H](CCc5ccc(O)cc5)NC(=O)[C@@H]5C[C@@H](O)CN5C(=O)[C@H]([C@@H](C)O)NC4=O)cc3)CC2)cc1 [Example 16] (X2-[Orn]T[Hyp][hTyr]T[Pro(4S-NH2)]; lactam 1-C)	0.2 (≈ 0.18 µM)	0.2 (≈ 0.18 µM)
COc1ccc(N2CCN(c3ccc(C(=O)N[C@H]4CCCNC(=O)[C@@H]5C[C@H](N)CN5C(=O)[C@H]([C@@H](C)O)NC(=O)[C@H](CCc5ccc(O)cc5)NC(=O)[C@@H]5C[C@@H](O)CN5C(=O)[C@H]([C@@H](C)O)NC4=O)cc3)CC2)cc1 [Example 17] (X23-[Orn]T[Hyp][hTyr]T[Pro(4S-NH2)]; lactam 1-C)	3.12 (≈ 3.08 µM)	12.5 (≈ 12.3 µM)
COc1ccc(-c2ccc(N3CCN(C(=O)N[C@H]4CCCNC(=O)[C@@H]5C[C@H](N)CN5C(=O)[C@H]([C@@H](C)O)NC(=O)[C@H](CCc5ccc(O)cc5)NC(=O)[C@@H]5C[C@@H](O)CN5C(=O)[C@H]([C@@H](C)O)NC4=O)CC3)cc2)cc1 [Example 22] ({X24-CO}-[Orn]T[Hyp][hTyr]T[Pro(4S-NH2)]; lactam 1-C)	6.25 (≈ 6.17 µM)	6.25 (≈ 6.17 µM)
CCCCCOc1ccc(-c2ccc(-c3ccc(CN[C@H]4CCCNC(=O)[C@@H]5C[C@H](N)CN5C(=O)[C@H]([C@@H](C)O)NC(=O)[C@H](CCc5ccc(O)cc5)NC(=O)[C@@H]5C[C@@H](O)CN5C(=O)[C@H]([C@@H](C)O)NC4=O)cc3)cc2)cc1 [Example 23]	0.39 (≈ 0.372 µM)	0.2 (≈ 0.191 µM)
CCCCCOc1ccc(-c2ccc(-c3ccc(C(=O)N[C@H]4CCCNC(=O)[C@@H]5C[C@H](NC)CN5C(=O)[C@H]([C@@H](C)O)NC(=O)[C@H](CCc5ccc(O)cc5)NC(=O)[C@@H]5C[C@@H](O)CN5C(=O)[C@H]([C@@H](C)O)NC4=O)cc3)cc2)cc1 [Example 24] ({pTerphenylCO(4''-OnC5H11)}-[Orn]T[Hyp][hTyr]T[X6]; lactam 1-C)	0.2 (≈ 0.186 µM)	0.39 (≈ 0.363 µM)
CCCCCOc1ccc(-c2ccc(-c3ccc(C(=O)N[C@H]4CCCNC(=O)[C@@H]5C[C@H](N(C)C)CN5C(=O)[C@H]([C@@H](C)O)NC(=O)[C@H](CCc5ccc(O)cc5)NC(=O)[C@@H]5C[C@@H](O)CN5C(=O)[C@H]([C@@H](C)O)NC4=O)cc3)cc2)cc1 [Example 25] ({pTerphenylCO(4''-OnC5H11)}-[Orn]T[Hyp][hTyr]T[X22]; lactam 1-C)	12.5 (≈ 11.5 µM)	25.00 (≈ 23 µM)
CCCCCOc1ccc(-c2ccc(-c3ccc(C(=O)N[C@H]4CCCNC(=O)[C@@H]5C[C@H](N(C)C(C)=O)CN5C(=O)[C@H]([C@@H](C)O)NC(=O)[C@H](CCc5ccc(O)cc5)NC(=O)[C@@H]5C[C@@H](O)CN5C(=O)[C@H]([C@@H](C)O)NC4=O)cc3)cc2)cc1 [Example 26] ({pTerphenylCO(4''-OnC5H11)}-[Orn]T[Hyp][hTyr]T[X17]; lactam 1-C)	0.78 (≈ 0.698 µM)	6.25 (≈ 5.59 µM)
CCCCCOc1ccc(-c2ccc(-c3ccc(C(=O)N[C@H]4CCCNC(=O)[C@@H]5C[C@H](NCc6ccccc6)CN5C(=O)[C@H]([C@@H](C)O)NC(=O)[C@H](CCc5ccc(O)cc5)NC(=O)[C@@H]5C[C@@H](O)CN5C(=O)[C@H]([C@@H](C)O)NC4=O)cc3)cc2)cc1 [Example 27] ({pTerphenylCO(4''-OnC5H11)}-[Orn]T[Hyp][hTyr]T[X1]; lactam 1-C)	0.78 (≈ 0.677 µM)	6.25 (≈ 5.43 µM)

Results, then the molecule that gave them:

MIC Candida albicans ATCC 10231 [1] [µg/mL]	MIC Candida albicans ATCC 38247 [2] [µg/mL]	SMILES
0.78 (≈ 0.637 µM)	3.12 (≈ 2.55 µM)	CCCCCOc1ccc(-c2ccc(-c3ccc(C(=O)N[C@H]4CCCNC(=O)[C@@H]5C[C@H](NCc6ccc(OCC(=O)O)cc6)CN5C(=O)[C@H]([C@@H](C)O)NC(=O)[C@H](CCc5ccc(O)cc5)NC(=O)[C@@H]5C[C@@H](O)CN5C(=O)[C@H]([C@@H](C)O)NC4=O)cc3)cc2)cc1 [Example 28] ({pTerphenylCO(4''-OnC5H11)}-[Orn]T[Hyp][hTyr]T[X9]; lactam 1-C)
0.39 (≈ 0.338 µM)	6.25 (≈ 5.42 µM)	CCCCCOc1ccc(-c2ccc(-c3ccc(C(=O)N[C@H]4CCCNC(=O)[C@@H]5C[C@H](NCc6ccncc6)CN5C(=O)[C@H]([C@@H](C)O)NC(=O)[C@H](CCc5ccc(O)cc5)NC(=O)[C@@H]5C[C@@H](O)CN5C(=O)[C@H]([C@@H](C)O)NC4=O)cc3)cc2)cc1 [Example 29] ({pTerphenylCO(4''-OnC5H11)}-[Orn]T[Hyp][hTyr]T[X12]; lactam 1-C)
0.39 (≈ 0.348 µM)	6.25 (≈ 5.58 µM)	CCCCCOc1ccc(-c2ccc(-c3ccc(C(=O)N[C@H]4CCCNC(=O)[C@@H]5C[C@H](NCC(=O)O)CN5C(=O)[C@H]([C@@H](C)O)NC(=O)[C@H](CCc5ccc(O)cc5)NC(=O)[C@@H]5C[C@@H](O)CN5C(=O)[C@H]([C@@H](C)O)NC4=O)cc3)cc2)cc1 [Example 30]
0.39 (≈ 0.349 µM)	3.12 (≈ 2.79 µM)	CCCCCOc1ccc(-c2ccc(-c3ccc(C(=O)N[C@H]4CCCNC(=O)[C@@H]5C[C@H](NC(=O)CC)CN5C(=O)[C@H]([C@@H](C)O)NC(=O)[C@H](CCc5ccc(O)cc5)NC(=O)[C@@H]5C[C@@H](O)CN5C(=O)[C@H]([C@@H](C)O)NC4=O)cc3)cc2)cc1 [Example 32] ({pTerphenylCO(4''-OnC5H11)}-[Orn]T[Hyp][hTyr]T[X16]; lactam 1-C)
0.39 (≈ 0.338 µM)	12.5 (≈ 10.8 µM)	CCCCCOc1ccc(-c2ccc(-c3ccc(C(=O)N[C@H]4CCCNC(=O)[C@@H]5C[C@H](NC(=O)c6ccco6)CN5C(=O)[C@H]([C@@H](C)O)NC(=O)[C@H](CCc5ccc(O)cc5)NC(=O)[C@@H]5C[C@@H](O)CN5C(=O)[C@H]([C@@H](C)O)NC4=O)cc3)cc2)cc1 [Example 34] ({pTerphenylCO(4''-OnC5H11)}-[Orn]T[Hyp][hTyr]T[X7]; lactam 1-C)
0.39 (≈ 0.333 µM)	1.56 (≈ 1.33 µM)	CCCCCOc1ccc(-c2ccc(-c3ccc(C(=O)N[C@H]4CCCNC(=O)[C@@H]5C[C@H](NC(=O)C6CCNCC6)CN5C(=O)[C@H]([C@@H](C)O)NC(=O)[C@H](CCc5ccc(O)cc5)NC(=O)[C@@H]5C[C@@H](O)CN5C(=O)[C@H]([C@@H](C)O)NC4=O)cc3)cc2)cc1 [Example 37] ({pTerphenylCO(4''-OnC5H11)}-[Orn]T[Hyp][hTyr]T[X10]; lactam 1-C)
0.78 (≈ 0.673 µM)	6.25 (≈ 5.39 µM)	CCCCCOc1ccc(-c2ccc(-c3ccc(C(=O)N[C@H]4CCCNC(=O)[C@@H]5C[C@H](NC(=O)C6CCCO6)CN5C(=O)[C@H]([C@@H](C)O)NC(=O)[C@H](CCc5ccc(O)cc5)NC(=O)[C@@H]5C[C@@H](O)CN5C(=O)[C@H]([C@@H](C)O)NC4=O)cc3)cc2)cc1 (stereo partly drawn) [Example 38] ({pTerphenylCO(4''-OnC5H11)}-[Orn]T[Hyp][hTyr]T[X8]; lactam 1-C)
0.78 (≈ 0.697 µM)	1.56 (≈ 1.39 µM)	CCCCCOc1ccc(-c2ccc(-c3ccc(C(=O)N[C@H]4CCCNC(=O)[C@@H]5C[C@H](NC(=O)OC)CN5C(=O)[C@H]([C@@H](C)O)NC(=O)[C@H](CCc5ccc(O)cc5)NC(=O)[C@@H]5C[C@@H](O)CN5C(=O)[C@H]([C@@H](C)O)NC4=O)cc3)cc2)cc1 [Example 39] ({pTerphenylCO(4''-OnC5H11)}-[Orn]T[Hyp][hTyr]T[X4]; lactam 1-C)
